Data: the supplement of paper PMC8728848
The list shows a part of the results.

Legend:
Experiment in all cases: glycan array binding signal (z-score within array); higher = stronger binding
Settings in all cases: glycan notation: IUPAC condensed, linker removed
Gal(a1-4)Gal(b1-4)Glc = biological target: Gal(a1-4)Gal(b1-4)Glc
Summary of the method: (§1)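 Arrays were curated from the Consortium for Functional Glycomics database, 3228 in total, and kept only where the protein sequence was available. Binding is expressed as a within-array Z-score. This score was averaged across arrays of the same protein sequence at different concentrations or buffers and across linkers, and negative values can be read as non-binding.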

Gal(a1-4)Gal(b1-4)GlcNAc = biological target: Gal(a1-4)Gal(b1-4)GlcNAc
Summary of the method: as §1

Gal(a1-4)GlcNAc = biological target: Gal(a1-4)GlcNAc
Summary of the method: as §1

Gal(a1-6)Glc = biological target: Gal(a1-6)Glc
Summary of the method: as §1

Gal(b1-2)Gal = biological target: Gal(b1-2)Gal
Summary of the method: as §1

Gal(b1-3)Gal = biological target: Gal(b1-3)Gal
Summary of the method: as §1

Gal(b1-3)GalNAc = biological target: Gal(b1-3)GalNAc
Summary of the method: as §1

[1] = biological target: Gal(b1-3)GalNAc(b1-3)Gal(a1-4)Gal(b1-4)Glc
Summary of the method: as §1

[2] = biological target: Gal(b1-3)GalNAc(b1-4)Gal(b1-4)Glc
Summary of the method: as §1

[3] = biological target: Gal(b1-3)GalNAc(b1-4)[Neu5Ac(a2-3)]Gal(b1-4)Glc
Summary of the method: as §1

Gal(b1-3)GlcNAc = biological target: Gal(b1-3)GlcNAc
Summary of the method: as §1

[4] = biological target: Gal(b1-3)GlcNAc(b1-3)Gal(b1-4)Glc
Summary of the method: as §1

[5] = biological target: Gal(b1-3)GlcNAc(b1-3)Gal(b1-4)GlcNAc
Summary of the method: as §1

[6] = biological target: Gal(b1-3)[Fuc(a1-4)]GlcNAc
Summary of the method: as §1

[7] = biological target: Gal(b1-3)[Fuc(a1-4)]GlcNAc(b1-3)Gal(b1-4)GlcNAc
Summary of the method: as §1

[8] = biological target: Gal(b1-3)[Fuc(a1-4)]GlcNAc(b1-3)Gal(b1-4)[Fuc(a1-3)]GlcNAc
Summary of the method: as §1

[9] = biological target: Gal(b1-3)[GlcNAc(b1-6)]GalNAc
Summary of the method: as §1

[10] = biological target: Gal(b1-3)[Neu5Ac(a2-6)]GalNAc
Summary of the method: as §1

[11] = biological target: Gal(b1-3)[Neu5Ac(a2-6)]GlcNAc(b1-6)Gal(b1-4)Glc
Summary of the method: as §1

[12] = biological target: Gal(b1-3)[Neu5Ac(b2-6)]GalNAc
Summary of the method: as §1

[13] = biological target: Gal(b1-4)GalNAc(a1-3)[Fuc(a1-2)]Gal(b1-4)GlcNAc
Summary of the method: as §1

[14] = biological target: Gal(b1-4)GalNAc(b1-3)[Fuc(a1-2)]Gal(b1-4)GlcNAc
Summary of the method: as §1

Gal(b1-4)Glc = biological target: Gal(b1-4)Glc
Summary of the method: as §1

Gal(b1-4)Glc6S = biological target: Gal(b1-4)Glc6S
Summary of the method: as §1

Gal(b1-4)GlcNAc = biological target: Gal(b1-4)GlcNAc
Summary of the method: as §1

[15] = biological target: Gal(b1-4)GlcNAc(b1-2)Man(a1-3)[Gal(b1-4)GlcNAc(b1-2)Man(a1-6)]Man(b1-4)GlcNAc(b1-4)GlcNAc
Summary of the method: as §1

[16] = biological target: Gal(b1-4)GlcNAc(b1-3)Gal(b1-4)Glc
Summary of the method: as §1

[17] = biological target: Gal(b1-4)GlcNAc(b1-3)Gal(b1-4)GlcNAc
Summary of the method: as §1

[18] = biological target: Gal(b1-4)GlcNAc(b1-3)Gal(b1-4)GlcNAc(b1-3)Gal(b1-4)GlcNAc
Summary of the method: as §1

[19] = biological target: Gal(b1-4)GlcNAc(b1-3)Gal(b1-4)[Fuc(a1-3)]GlcNAc(b1-3)Gal(b1-4)[Fuc(a1-3)]GlcNAc
Summary of the method: as §1

[20] = biological target: Gal(b1-4)GlcNAc(b1-3)GalNAc
Summary of the method: as §1

[21] = biological target: Gal(b1-4)GlcNAc(b1-3)[Gal(b1-4)GlcNAc(b1-6)]GalNAc
Summary of the method: as §1

[22] = biological target: Gal(b1-4)GlcNAc(b1-6)Gal(b1-4)GlcNAc(b1-6)GalNAc
Summary of the method: as §1

[23] = biological target: Gal(b1-4)GlcNAc(b1-6)GalNAc
Summary of the method: as §1

[24] = biological target: Gal(b1-4)GlcNAc(b1-6)[Gal(b1-3)]GalNAc
Summary of the method: as §1

Gal3S(b1-3)GalNAc = biological target: Gal3S(b1-3)GalNAc
Summary of the method: as §1

Gal3S(b1-3)GlcNAc = biological target: Gal3S(b1-3)GlcNAc
Summary of the method: as §1

[25] = biological target: Gal3S(b1-3)[Fuc(a1-4)]GlcNAc
Summary of the method: as §1

Gal3S(b1-4)Glc = biological target: Gal3S(b1-4)Glc
Summary of the method: as §1

Gal3S(b1-4)Glc6S = biological target: Gal3S(b1-4)Glc6S
Summary of the method: as §1

Gal3S(b1-4)GlcNAc = biological target: Gal3S(b1-4)GlcNAc
Summary of the method: as §1

Gal3S(b1-4)GlcNAc6S = biological target: Gal3S(b1-4)GlcNAc6S
Summary of the method: as §1

Gal3S6S(b1-4)GlcNAc = biological target: Gal3S6S(b1-4)GlcNAc
Summary of the method: as §1

Gal3S6S(b1-4)GlcNAc6S = biological target: Gal3S6S(b1-4)GlcNAc6S
Summary of the method: as §1

Gal4S(b1-4)GlcNAc = biological target: Gal4S(b1-4)GlcNAc
Summary of the method: as §1

B1: AICL (Homo sapiens), Q92478 (protein)
chain: MMTKHKKCFIIVGVLITTNIITLIVKLTRDSQSLCPYDWIGFQNKCYYFSKEEGDWNSSKYNCSTQHADLTIIDNIEEMNFLRRYKCSSDHWIGLKMAKNRTGQWVDGATFTKSFGMRGSEGCAYLSDDGAATARCYTERKWICRKRIH
Gal(a1-4)Gal(b1-4)Glc
  glycan array binding signal (z-score): 0.014
Gal(a1-4)Gal(b1-4)GlcNAc
  glycan array binding signal (z-score): -0.258
Gal(a1-4)GlcNAc
  glycan array binding signal (z-score): -0.349
Gal(a1-6)Glc
  glycan array binding signal (z-score): 0.384
Gal(b1-2)Gal
  glycan array binding signal (z-score): -0.391
Gal(b1-3)Gal
  glycan array binding signal (z-score): -0.314
Gal(b1-3)GalNAc
  glycan array binding signal (z-score): -0.313
[1]
  glycan array binding signal (z-score): -0.112
[2]
  glycan array binding signal (z-score): -0.243
[3]
  glycan array binding signal (z-score): -0.397
Gal(b1-3)GlcNAc
  glycan array binding signal (z-score): -0.41
[4]
  glycan array binding signal (z-score): -0.388
[5]
  glycan array binding signal (z-score): -0.39
[6]
  glycan array binding signal (z-score): -0.382
[7]
  glycan array binding signal (z-score): -0.356
[8]
  glycan array binding signal (z-score): -0.259
[9]
  glycan array binding signal (z-score): -0.354
[10]
  glycan array binding signal (z-score): -0.085
[11]
  glycan array binding signal (z-score): -0.359
[12]
  glycan array binding signal (z-score): -0.47
[13]
  glycan array binding signal (z-score): -0.399
[14]
  glycan array binding signal (z-score): -0.438
Gal(b1-4)Glc
  glycan array binding signal (z-score): -0.297
Gal(b1-4)Glc6S
  glycan array binding signal (z-score): -0.236
Gal(b1-4)GlcNAc
  glycan array binding signal (z-score): -0.506
[15]
  glycan array binding signal (z-score): -0.438
[16]
  glycan array binding signal (z-score): -0.422
[17]
  glycan array binding signal (z-score): -0.439
[18]
  glycan array binding signal (z-score): -0.36
[19]
  glycan array binding signal (z-score): -0.194
[20]
  glycan array binding signal (z-score): -0.489
[21]
  glycan array binding signal (z-score): -0.511
[22]
  glycan array binding signal (z-score): -0.135
[23]
  glycan array binding signal (z-score): -0.488
[24]
  glycan array binding signal (z-score): -0.394
Gal3S(b1-3)GalNAc
  glycan array binding signal (z-score): -0.409
Gal3S(b1-3)GlcNAc
  glycan array binding signal (z-score): -0.367
[25]
  glycan array binding signal (z-score): -0.245
Gal3S(b1-4)Glc
  glycan array binding signal (z-score): -0.061
Gal3S(b1-4)Glc6S
  glycan array binding signal (z-score): 1.89
Gal3S(b1-4)GlcNAc
  glycan array binding signal (z-score): -0.281
Gal3S(b1-4)GlcNAc6S
  glycan array binding signal (z-score): 1.18
Gal3S6S(b1-4)GlcNAc
  glycan array binding signal (z-score): 0.586
Gal3S6S(b1-4)GlcNAc6S
  glycan array binding signal (z-score): 5.26
Gal4S(b1-4)GlcNAc
  glycan array binding signal (z-score): -0.344
